Experimental data published in PubChem BioAssay (NCATS).
Inconclusive results, whose numbers are uncertain, are shown. No potency is given beside an inconclusive call; the fits are too rough.

molecular target: Ubiquitin carboxyl-terminal hydrolase 1 (Homo sapiens) (UniProt O94782); assay: Inhibitors of USP1/UAF1: Pilot qHTS (AID 504865); conditions: purified USP1/UAF1, Ub-rhodamine cleavage fluorescence; series mostly up to 114 µM;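 further: rhodamine fluorescence freed from ubiquitin-rhodamine substrate followed over time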
UniProt O94782, sequence (O94782 whole entry, looked up): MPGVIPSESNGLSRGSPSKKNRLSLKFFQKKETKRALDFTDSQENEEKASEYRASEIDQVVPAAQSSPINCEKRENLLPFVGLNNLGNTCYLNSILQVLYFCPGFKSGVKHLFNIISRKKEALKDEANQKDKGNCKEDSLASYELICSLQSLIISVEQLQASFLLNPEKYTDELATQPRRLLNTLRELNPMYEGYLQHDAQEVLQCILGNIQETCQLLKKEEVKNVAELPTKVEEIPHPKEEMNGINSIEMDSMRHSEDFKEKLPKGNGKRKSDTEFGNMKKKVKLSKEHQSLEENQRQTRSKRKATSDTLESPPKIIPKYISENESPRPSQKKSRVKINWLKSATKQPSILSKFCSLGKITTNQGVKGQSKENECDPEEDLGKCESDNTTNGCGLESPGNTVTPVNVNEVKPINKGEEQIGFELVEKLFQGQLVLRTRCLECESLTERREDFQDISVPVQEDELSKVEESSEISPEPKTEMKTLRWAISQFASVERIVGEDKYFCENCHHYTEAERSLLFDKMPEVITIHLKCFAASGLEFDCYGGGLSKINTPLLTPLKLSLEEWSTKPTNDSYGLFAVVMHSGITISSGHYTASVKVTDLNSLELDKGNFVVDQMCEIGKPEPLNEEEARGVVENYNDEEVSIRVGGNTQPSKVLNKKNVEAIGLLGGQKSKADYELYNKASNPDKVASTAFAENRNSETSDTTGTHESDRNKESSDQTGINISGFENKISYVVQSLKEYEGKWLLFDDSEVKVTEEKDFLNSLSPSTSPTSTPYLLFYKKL
How it was run: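 USP1/UAF1 complex (1nM) preincubated with compound 15 min at room temperature, then Ub-Rho substrate (150nM final) added. Fluorescence read kinetically at 480/540 nm, 6 reads every 60 seconds. Buffer: 50mM HEPES pH 7.8, 0.5mM EDTA, 0.1 mg/ml BSA, 1mM TCEP, 0.01% Tween-20.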
Potency means the concentration at half of the fitted maximal effect; tags describe the fitted curve by direction and shape.

| SMILES | Potency |
| --- | --- |
| NC(=O)Oc1ccc(Cc2ccccc2)cc1 | inconclusive [inhibitor, partial curve, poor fit] |
| CCC(C)C(=O)OC1C2CC3=C4CC(=O)OC(c5ccoc5)[C@]4(C)CCC3[C@@](C)(C2=O)C(CC(=O)OC)C1(C)C (stereo not given in full) | inconclusive [inhibitor, partial curve, poor fit] |
| COC(=O)[C@]1(C)CC[C@@]2(C)CC[C@@]3(C)C4=CCc5c(cc(O)c(O)c5C)[C@]4(C)CC[C@@]3(C)C2C1 (stereo not given in full) | inconclusive [inhibitor, partial curve, poor fit] |
| CC(C)CCCC(C)C1CCC2C3=CC[C@@H]4CC(O)CC[C@@]4(C)C3CC[C@]21C (stereo not given in full) | inconclusive [inhibitor, full curve] |
| c1ccc(CN2CCC3(CCc4ccccc43)CC2)cc1 | inconclusive [inhibitor, partial curve, poor fit] |
